The supplement of paper PMC4166925
± gives the standard deviation of the averaged measurements. In all, about 33,000 sequences were measured (“E-score (dimensionless, -0.5 to 0.5)”: median about -0.049, highest 2% from about 0.37 on). The list shows a part of the results.

What follows are sequences tested on T1, PmTbr T-box DNA-binding domain (GST fusion) (assay: PBM E-score of 8-mer (E-score (dimensionless, -0.5 to 0.5)); Tbr is Tbrain of the sea star Patiria miniata (Pm) or the sea urchin Strongylocentrotus purpuratus (Sp); higher = stronger binding preference; most listed sequences are background and not binding sites). Conditions: the construct has about 5 more residues each side.
T1 sequence: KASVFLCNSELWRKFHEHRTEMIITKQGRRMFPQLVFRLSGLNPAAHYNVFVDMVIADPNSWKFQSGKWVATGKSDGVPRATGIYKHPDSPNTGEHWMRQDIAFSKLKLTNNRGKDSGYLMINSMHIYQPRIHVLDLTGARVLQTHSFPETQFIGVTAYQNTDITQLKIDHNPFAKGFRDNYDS
Procedure, shortened: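 GST-fused Tbr T-box DNA-binding domains (the whole T-box plus about five flanking residues) were expressed in BL21 E. coli at 20 °C and purified by glutathione affinity chromatography. Universal Agilent oligonucleotide arrays were made double-stranded by primer extension, incubated with 200 nM protein in PBS (pH 7.5), then scanned and quantified. Every ungapped 8-mer was scored from probe intensities. The Universal PBM Analysis Suite gave each word an enrichment E-score, averaged over duplicate arrays.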

Sequence | PBM E-score of 8-mer
AAGTGAGA | 0.429 ± 0.0088
TAGCGGGA | 0.0951 ± 0.026
GCTACAAC | -0.0921 ± 0.011
ATTCTCTC | 0.116 ± 0.017
ATCATCAA | -0.142 ± 0.071
TCGATGAA | -0.145 ± 0.096
GAGACGAA | 0.0384 ± 0.0069
CGAGACCC | -0.0652 ± 0.0067
CGTGTTCC | -0.0107 ± 0.018
CTTCGTTC | -0.232 ± 0.01
GCGTCTCC | -0.135 ± 0.039
ATAATGAT | -0.0812 ± 0.017
GAAAAAAC | -0.089 ± 0.079
CTTTCTCA | 0.0644 ± 0.086
AGGTGCCA | 0.4761 ± 0.0036
CTTGATGC | -0.217 ± 0.026
AGATGGAG | -0.163 ± 0.016
CACCTGGC | 0.427 ± 0.007
GAGTAGGC | -0.211 ± 0.074
ATACCACA | 0.0618 ± 0.03
ATACGGTA | -0.105 ± 0.025
GCGGTAGC | 0.0133 ± 0.021

Sequence | PBM E-score of 8-mer
ACCCAACC | -0.112 ± 0.0036
TCGGCAGA | -0.133 ± 0.034
AAGAACTT | -0.0867 ± 0.021
CCAATCTC | -0.0504 ± 0.045
ACCTAACC | 0.11 ± 0.009
GTATCTTA | -0.15 ± 0.027
CCAAATAA | -0.259 ± 0.013
ATGGTATG | -0.138 ± 0.029
AAATCAAG | 0.137 ± 0.074
ACATGACA | 0.287 ± 0.0097
ACCGCTTC | 0.0527 ± 0.056
CCAGGTGA | 0.339 ± 0.023
AGGGGGAC | -0.247 ± 0.025
TCAAATAA | 0.0138 ± 0.054
ATTTCTCA | 0.0962 ± 0.15
ATGGGTTC | -0.264 ± 0.003
AGGGTATA | -0.0275 ± 0.05
ACTGTAGA | 0.0339 ± 0.022
CAGGTCGC | 0.184 ± 0.047
CGGGGTAC | 0.031 ± 0.066
CTCCTTTC | -0.102 ± 0.022
CAGCGTAC | -0.142 ± 0.083

Sequence | PBM E-score of 8-mer
AAGCTTTA | -0.201 ± 0.028
ACACTTCC | 0.428 ± 0.016
GACCCAAC | -0.126 ± 0.095
CCAAGGCA | -0.123 ± 0.056
ACCGTGTC | 0.1606 ± 0.0013
GGGTCGAC | -0.0711 ± 0.048
CTCCGGCA | 0.107 ± 0.12
AATGTCGC | 0.224 ± 0.023
GGTCGCAA | 0.205 ± 0.0044
GCGGGGGA | -0.0529 ± 0.066
ATCACTTG | 0.216 ± 0.045
CCATCACC | 0.245 ± 0.032
ATATAGGA | -0.275 ± 0.021
GCCTATCA | 0.144 ± 0.011
ATGTGATC | 0.0403 ± 0.026
CGTATAAA | -0.18 ± 0.015
CTACGCGC | 0.187 ± 0.022
GCGATTGA | 0.00864 ± 0.027
GCGGTGAC | 0.152 ± 0.057
TAAGGCCA | -0.193 ± 0.076
TCTGCGAA | 0.201 ± 0.038
ACAGTTCT | 0.16 ± 0.0018

Sequence | PBM E-score of 8-mer
CGAGCAAG | -0.162 ± 0.0036
ACGTGTCA | 0.4563 ± 0.0033
CCACAAGC | -0.0952 ± 0.047
CAACGCCG | 0.0783 ± 0.015
ACTCAGTA | -0.113 ± 0.082
GACTCAGC | -0.234 ± 0.068
CTACTCAA | -0.00664 ± 0.16
AAGGCACC | 0.126 ± 0.043
CCGTGTAA | 0.0629 ± 0.076
GCGGGGCA | -0.101 ± 0.012
CAGCTTTC | 0.12 ± 0.0031
AACAGAAG | -0.188 ± 0.009
GACGACCC | -0.0887 ± 0.012
GCATCTAC | -0.0368 ± 0.025
CTGCTCTC | -0.208 ± 0.057
CGCCGTAC | -0.179 ± 0.0076
ACTCCGAG | -0.0996 ± 0.049
GAGGGTAA | -0.192 ± 0.004
ACCTCGGG | 0.0398 ± 0.076
ACTCAATG | -0.108 ± 0.081
